Assay results taken from the BET-seq Pho4 binding data (Le et al. 2018).
The other results are listed elsewhere or left out. The energies were worked out here from pooled read counts, against the library average; single values are noisy.

target: T1, Pho4 (S. cerevisiae) (UniProt P07270); experiment: relative binding free energy (BET-seq); higher = weaker binding; details: reference: library average
T1 sequence: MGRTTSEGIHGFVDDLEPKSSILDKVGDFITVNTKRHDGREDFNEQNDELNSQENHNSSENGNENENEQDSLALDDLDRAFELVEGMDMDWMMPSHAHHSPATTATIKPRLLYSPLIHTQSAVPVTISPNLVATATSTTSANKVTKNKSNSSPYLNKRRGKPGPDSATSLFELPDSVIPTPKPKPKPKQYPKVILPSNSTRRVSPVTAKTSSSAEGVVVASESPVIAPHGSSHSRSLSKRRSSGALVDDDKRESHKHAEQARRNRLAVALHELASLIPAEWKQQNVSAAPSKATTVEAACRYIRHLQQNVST

Sequence | relative binding free energy
GTATTCACGTGTCATG | 0.16 kcal/mol
CGGTTCACGTGAATTG | 0.3 kcal/mol
TGTGTCACGTGGCTGA | 0.02 kcal/mol
TCCGGCACGTGGGGTC | -0.21 kcal/mol
ACGGGCACGTGTGTAA | -0.04 kcal/mol
GTTTCCACGTGAGTGA | 0.34 kcal/mol
GTCGGCACGTGTGGGG | 0.09 kcal/mol
AAGCTCACGTGTAGGT | 0.19 kcal/mol
ATATACACGTGTTGGG | 0.01 kcal/mol
TAGTTCACGTGCTGAG | 0.43 kcal/mol
TCGGTCACGTGGATGA | 0.11 kcal/mol
GTGGACACGTGGAGGC | 0 kcal/mol
TTTCTCACGTGTTGCA | 0.24 kcal/mol
GATGACACGTGGGGGT | -0.05 kcal/mol
TATTGCACGTGTGGGT | 0.11 kcal/mol
GGGCTCACGTGGTTTG | 0.28 kcal/mol
GATGTCACGTGGAAGA | 0.28 kcal/mol
ATACGCACGTGTGGTG | -0.11 kcal/mol
GGTAGCACGTGCTGGT | -0.07 kcal/mol
GGTAACACGTGATTAA | 0.3 kcal/mol

Sequence | relative binding free energy
AAAGGCACGTGAGTTA | 0.06 kcal/mol
GACGGCACGTGAGGGA | 0.1 kcal/mol
TTCTGCACGTGAAGAT | 0.34 kcal/mol
AATTTCACGTGGAGTT | 0.28 kcal/mol
AGGAACACGTGGATTT | 0.14 kcal/mol
TGATACACGTGGGGCT | -0.01 kcal/mol
TTGGGCACGTGACTTT | 0.04 kcal/mol
TTTTACACGTGTATGC | 0.05 kcal/mol
TGCGCCACGTGGCGTG | -0.14 kcal/mol
GCGGTCACGTGGGCAT | -0.01 kcal/mol
ATGCTCACGTGGTTGG | 0.12 kcal/mol
TGTCTCACGTGTTTTG | 0.35 kcal/mol
CGGCGCACGTGTGAGG | -0.12 kcal/mol
TGAAGCACGTGTGTCT | -0.15 kcal/mol
CGGCTCACGTGGGCGG | 0.18 kcal/mol
GTGCTCACGTGCAGTG | 0.18 kcal/mol
CGAGTCACGTGTTATG | 0.18 kcal/mol
TTGAGCACGTGAGTAG | 0.13 kcal/mol
GTAAACACGTGGGGTA | -0.21 kcal/mol
TAGTGCACGTGTCCGG | 0.05 kcal/mol

Sequence | relative binding free energy
TCTTCCACGTGTGGTT | 0.16 kcal/mol
TGTGTCACGTGATCAT | 0.1 kcal/mol
GCGGCCACGTGGTGTG | -0.08 kcal/mol
TTCGTCACGTGTAGTC | 0.14 kcal/mol
GTAGACACGTGAGGGC | 0.28 kcal/mol
TTAGTCACGTGCTTTA | -0.07 kcal/mol
GAAGGCACGTGTAGTA | -0.06 kcal/mol
TCGTGCACGTGATTTA | 0.04 kcal/mol
TAAATCACGTGGTTAA | 0.13 kcal/mol
AAGTTCACGTGAAGAT | 0.34 kcal/mol
TATAACACGTGGCATT | 0 kcal/mol
CGATTCACGTGGTTGT | 0.24 kcal/mol
ATTTGCACGTGGGTCT | -0.21 kcal/mol
TGTGTCACGTGAATAA | 0.28 kcal/mol
GGATACACGTGGGTAT | -0.1 kcal/mol
AAATTCACGTGTTGCT | 0.31 kcal/mol
GCGAGCACGTGGGGAG | -0.18 kcal/mol
ATAACCACGTGTGTTT | -0.03 kcal/mol
